The results in this text go back to patent US20240124563A1 (NANJING ZAIMING PHARMACEUTICAL, published 2024).

Test [1] deals with T1, human MSLN full-length protein, recombinant, on CHO-K1 or HEK293T cells (human, UniProt Q13421 296-598).
T1 construct: The background says that the precursor is cleaved by furin to the mature membrane form; also called hMSLN; CHO-K1-hMSLN-2C8
As to the kind of experiment: competitive FACS on CHO-K1-human MSLN-2C8 cells vs Biotin-Tab142; competitor at 0.032 nM.

The target of test [2] is T2, human MSLN-FL-his protein (human, UniProt Q13421 296-580).
T2 construct: Made in HEK293E cells, purified on nickel column; also called hMSLN-FL-his; not shown: histidine tag
Nature of the test: competitive ELISA on MSLN-FL-His; other antibody: NB149-31 (3.m7). (In general: ELISA stands for enzyme-linked immunosorbent assay.)

Test [3] concerns the target T2, human MSLN-FL-his protein. As to the kind of experiment: competitive ELISA on MSLN-FL-His; other antibody: NB148-25 (3.m2).
Test [4] has as its target T3, chimeric human MSLN-R3 / chicken MSLN-R1-2 protein on HEK293T cells (clone A5) (chicken; human).
T3 construct: range 327-514; Human R1-R2 replaced by chicken R1-R2; also called HEK293T-chickR1-2/hR3-A5; HEK293T-hR3/chickR1-2-A5
Nature of the test: FACS, HEK293T-hR3/chickR1-2-A5 cells, antibody 0.2 nM. (A flow cytometer gives signals particle by particle.)

Test [5] deals with T2, human MSLN-FL-his protein. Nature of the test: competitive ELISA on MSLN-FL-His; other antibody: NB149-70 (3.m9).
Test [6] deals with T4, human MSLN protein endogenously expressed on tumor cells (Hela, OVCAR3) (human, UniProt Q13421 296-598).
T4 construct: whole, on cells
As to the kind of experiment: FACS, OVCAR3 cells, antibody 0.2 nM.

Test [7] deals with T1, human MSLN full-length protein, …. As to the kind of experiment: FACS, CHO-K1-hMSLN-2C8 cells.
Test [8] has as its target T4, human MSLN protein endogenously …. Nature of the test: FACS, OVCAR3 cells, antibody 20 nM.
For test [9] the target is unchanged. As to the kind of experiment: FACS, Hela cells.
Test [10] concerns the target T1, human MSLN full-length protein, …. As to the kind of experiment: competitive FACS on CHO-K1-human MSLN-2C8 cells vs Biotin-Tab131; competitor at 1.6 nM.
The target is the same in test [11]. Nature of the test: competitive FACS on CHO-K1-human MSLN-2C8 cells vs Biotin-Tab131; competitor at 40 nM.
Test [12] has the same target. As to the kind of experiment: competitive FACS on CHO-K1-human MSLN-2C8 cells vs Biotin-Tab131; competitor at 8 nM.
For test [13] the target is unchanged. Nature of the test: competitive FACS on CHO-K1-human MSLN-2C8 cells vs Biotin-Tab131; competitor at 0.00256 nM.
The target is the same in test [14]. Nature of the test: competitive FACS on CHO-K1-human MSLN-2C8 cells vs Biotin-Tab131; competitor at 0.064 nM.
Test [15] has the same target. As to the kind of experiment: competitive FACS on CHO-K1-human MSLN-2C8 cells vs Biotin-Tab131; competitor at 0.32 nM.
Test [16] shares this target. Nature of the test: competitive FACS on CHO-K1-human MSLN-2C8 cells vs Biotin-Tab131; competitor at 0.0128 nM.
Test [17] shares this target. As to the kind of experiment: competitive FACS on CHO-K1-human MSLN-2C8 cells vs Biotin-Tab131; competitor at 200 nM.

T2 sequence (Q13421 other isoform, or with tags, fused parts or gaps): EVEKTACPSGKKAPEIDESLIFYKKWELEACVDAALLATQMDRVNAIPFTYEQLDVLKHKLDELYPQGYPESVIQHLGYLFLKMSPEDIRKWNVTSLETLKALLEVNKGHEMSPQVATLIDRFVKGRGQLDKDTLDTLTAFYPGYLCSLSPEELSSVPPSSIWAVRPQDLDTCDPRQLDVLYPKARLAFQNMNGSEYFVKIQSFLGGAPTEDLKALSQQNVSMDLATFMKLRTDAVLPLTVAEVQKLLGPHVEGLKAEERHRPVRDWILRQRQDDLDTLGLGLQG

B1: NB148-46 VHH-hFc (Fc fusion)
chain: EVQLVESGGGLVQAGGSLRLSCAASGSTFSSYPMGWYRQAPGKQRELVAAISSGGSTNYADSVKGRFTISRDNAKNTVYLQMNSLKPEDTAVYYCNTRSPRVPNDSWGQGTQVTVSS[human IgG1 Fc with changes not written out]
What is called EC50 is the concentration needed to bring the measured effect to its halfway point. For B1, the “MFI of Biotin-Tab142” value in test [1] is 43500. Further, the inhibition rate is 89% in test [2], -6% in test [3] and 81% in [5]. In addition, the figures for the MFI in [4], in test [6] and in test [8] were 72, 1450 and 11100, respectively. Also, the EC50 in test [7] came out at 1.69 nM; in test [9], 0.14 nM. Besides, the “Max MFI” value was determined as 10900 in test [7] and 332 in test [9].

B2: NB148-35 VHH-hFc (Fc fusion)
chain: EVQVVESGGGLVQPGGSLRLSCGVSGSILALNTMRWYRQTPGNQREWVASIYSSGGSTGYADSVKGRFIISRDSAKNMMSLQMNSLKSEDTAVYYCNVQTPLNVYWGQGTQVTVSS[human IgG1 Fc with changes not written out]
For the molecule B2, the “MFI of Biotin-Tab131” value in [10] was 11700; in test [11], 1530; in [12], 8840; in [13] it was 13800; in test [14], 13000; in test [15], 12000. For the same molecule, the “MFI of Biotin-Tab131” value turned out to be 11900 in test [16] and 115 in test [17]. In addition, in [1], the “MFI of Biotin-Tab142” value amounted to 42900. In addition, the inhibition rate in test [2] is -33%; in test [3], 75%; in [5], -24%. The MFI in test [4] amounted to 73; in [6] it was 1610; in [8], 9220. Besides, the results for the concentration for a half-maximal effect (EC50) in [7] and in test [9] were 3.65 nM and 0.26 nM, respectively. The “Max MFI” value in [7] is 13600; in [9], 318.

B3: NB148-88 VHH-hFc (Fc fusion)
chain: QLQLVESGGGLVQPGGSHRLSCAVSVSTFTRYAMRWYRQAPGKEREWLTSIYSDGSSAYADSVKDRFTISLDNAKNMLYLQMNSLKPEDTAVYYCNANVDSKAYWGQGTQVTVAS[human IgG1 Fc with changes not written out]
B3: the “MFI of Biotin-Tab131” value in [10] is 12200; in [11] it was 2050; in test [12] it was 9390; in [13] it was 13900; in [14] it was 12600; in test [15], 12600. Besides, the entries for the “MFI of Biotin-Tab131” value in [16] and in test [17] were 11700 and 158, respectively. In test [1], the “MFI of Biotin-Tab142” value was 44700. In addition, the inhibition rate in test [2] was 37%; in [3], 76%; in test [5], -89%. The values for the MFI in test [4], in test [6] and in test [8] were 73, 1480 and 9370, respectively. Moreover, the 50% effective concentration (EC50) in test [7] was 2.55 nM; in test [9], 0.29 nM. The “Max MFI” value worked out at 13000 in [7] and 310 in [9].

B4: NB148-25 VHH-hFc (Fc fusion)
chain: QVQLVESGGGLVQAGGSLRLSCAASGSTFGRIVMRWYRQAQGKQREWVASIYDSGSTSYSDPVQGRFTISRDNARNTVYLQMNSLRPADTAVYYCNLGTALSSYWGQGTQVTVSS[human IgG1 Fc with changes not written out]
In the case of B4, the “MFI of Biotin-Tab131” value in test [10] turned out to be 11600; in test [11], 977; in [12], 7570; in [13] it was 13300; in [14] it was 12500; in test [15], 11700. Further, the “MFI of Biotin-Tab131” value in [16] was found to be 11600; in test [17], 124. For the same molecule, the “MFI of Biotin-Tab142” value in [1] was 41600. In addition, the figures for the inhibition rate in test [2], in [3] and in [5] were 24%, 85% and 38%, respectively. The MFI in test [4] stood at 73; in [6] it was 1970; in test [8] it was 8540. The 50% effective concentration (EC50) worked out at 3.82 nM in test [7] and 0.68 nM in test [9]. For the same molecule, the “Max MFI” value is 13500 in test [7] and 394 in test [9].
